Measured values as given in the supplement of paper PMC12217912.
This is one part of the list. Sequences were assembled here from the parent chain. Values near 0.05 are background.

B1: TEV protease; numbered along this chain (parent)
chain: MGESLFKGPRDYNPISSSICHLTNESDGHTTSLYGIGFGPFIITNKHLFRRNNGTLVVQSLHGVFKVKDTTTLQQHLVDGRDMIIIRMPKDFPPFPQKLKFREPQREERICLVTTNFQTKSMSSMVSDTSCTFPSGDGIFWKHWIQTKDGQCGSPLVSTRDGFIVGIHSASNFTNTNNYFTSVPKNFMELLTNQEAQQWVSGWRLNADSVLWGGHKVFMVKPEEPFQPVKEATQL

Variants of: B1
Assay: raw area under fraction-flipped curve 0-4 h after induction (AUC4h, not background-subtracted), DNA-recorder readout of cleavage of the substrate (dimensionless); higher = more cleavage of the substrate by the protease variant
Conditions: temperature: 34 °C; time window: 0-4 h after rhamnose induction
Procedure: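 In vivo DNA recorder in E. coli TOP10(DE3) ΔrhaA at 34 °C. Each TEVp single-site mutant (parent TEVp 0) is paired with a single-site variant of the 7-mer TEVs (canonical ENLYFQ|S). The substrate sits between flexible linkers in a Bxb1-sfGFP-TEVs-SsrA fusion, so cleavage stabilises Bxb1 and speeds flipping of a recombination array, read by NGS. The value is the raw area under the fraction-flipped curve over 0-4 h after rhamnose induction (AUC4h), with ≥20 reads per time point. It is not background-subtracted; inactive controls average about 0.047.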
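Note: Bxb1 expression induced with 0.2% (w/v) L-rhamnose at OD600 near 0.5, cultures sampled hourly, flipped fraction per protease–substrate barcode pair counted by paired-end Illumina sequencing.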

Row | Variant | area with substrate ENLAFQS | area with substrate ENLEFQS | area with substrate ENLFFQS | area with substrate ENLHFQS | area with substrate ENLIFQS | area with substrate ENLKFQS | area with substrate ENLLFQS | area with substrate ENLMFQS | area with substrate ENLNFQS | area with substrate ENLQFQS | area with substrate ENLTFQS | area with substrate ENLCFQS | area with substrate ENLDFQS | area with substrate ENLRFQS | area with substrate ENLSFQS | area with substrate ENLWFQS | area with substrate ENLGFQS | area with substrate ENLPFQS | area with substrate ENLVFQS
1 | F187D | 0.0433 | 0.0546 | 0.0552 | 0.0699 | 0.0673 | 0.0614 | 0.05 | 0.0586 | 0.0608 | 0.0583 | 0.044 | – | – | – | – | – | – | – | –
2 | R106S | 0.0611 | 0.0647 | 0.101 | 0.0673 | 0.109 | 0.0733 | – | – | – | 0.101 | – | 0.0679 | 0.0546 | 0.0698 | 0.0703 | 0.0581 | – | – | –
3 | L22H | 0.0525 | 0.0678 | 0.0488 | 0.0476 | 0.0572 | 0.0486 | 0.0443 | 0.0502 | 0.0509 | 0.0477 | – | 0.0545 | 0.0439 | 0.0404 | 0.0532 | 0.0367 | 0.0555 | 0.0532 | –
4 | R10D | 0.0772 | 0.0611 | 0.0774 | 0.0692 | 0.083 | – | – | – | 0.0691 | 0.0638 | – | 0.0659 | 0.0509 | – | 0.0638 | 0.0497 | 0.0562 | 0.0587 | 0.0783
5 | D27S | 0.0575 | 0.0584 | 0.0761 | 0.0684 | 0.0694 | – | – | – | 0.0686 | – | – | 0.0832 | 0.0333 | 0.0657 | 0.0566 | 0.0739 | – | – | 0.0618
6 | G54K | 0.0623 | 0.0674 | 0.0612 | 0.0976 | 0.0647 | 0.06 | – | – | 0.0491 | 0.0547 | – | 0.0489 | 0.0615 | – | – | – | – | 0.0627 | –
7 | Q198L | 0.039 | 0.0591 | 0.0527 | 0.0692 | – | 0.0722 | – | 0.0668 | – | – | – | 0.0574 | 0.0534 | – | 0.0615 | 0.0738 | – | 0.0563 | –
8 | I110K | 0.0551 | 0.0627 | 0.0476 | 0.0596 | – | 0.0988 | – | – | 0.0525 | – | 0.0516 | 0.069 | 0.0593 | – | – | 0.0533 | – | 0.0504 | 0.0449
9 | V113S | 0.0491 | – | 0.063 | 0.0419 | 0.0579 | 0.0692 | 0.0558 | 0.0566 | 0.0585 | 0.0561 | – | 0 | 0.044 | – | – | 0.0469 | 0.0638 | 0.0328 | 0.108
10 | F41A | 0.0619 | – | 0.0686 | 0.0644 | – | 0.0616 | – | – | 0.056 | 0.0576 | – | 0.0781 | – | 0.0555 | 0.0483 | 0.0535 | – | 0.041 | –
11 | N178A | 0.0542 | 0.0734 | – | 0.0558 | 0.0678 | 0.0789 | 0.0379 | – | 0.0588 | – | – | 0.0774 | 0.0605 | – | 0.0539 | – | – | 0.0449 | –
12 | E223Y | 0.0699 | 0.0619 | 0.0793 | 0.0726 | 0.054 | 0.0919 | 0.081 | 0.0728 | 0.0575 | – | – | 0.0774 | 0.0638 | – | 0.0644 | 0.0931 | 0.0653 | 0.0635 | 0.0812
13 | S17P | 0.0567 | 0.0583 | 0.0724 | 0.0658 | – | 0.0609 | 0.0679 | 0.0637 | 0.0608 | 0.0639 | – | – | 0.0622 | 0.0738 | 0.0708 | 0.0725 | 0.0766 | 0.0682 | –
